Sequences with one replicate were seen in a single cluster, so their values are uncertain.
System: ATP
Assay: switch fluorescence ratio, 500 uM ATP over buffer (Cy3 cluster intensity, sum of 5 cycles each) (fold (ratio)); higher = stronger signal-on switching upon ATP binding; sequences stand for … in TCGTCGGCAGCGTCAGATGTGTATAAGAGACAGTTTTTTTTTTTTTTTTTTTTTTTTT…TC
Details: aptamer strand: ATP DNA aptamer (quencher-CACCTGGGGGAGTATTGCGGAGGAAGG + anchor), 100 nM annealed; ATP concentration: 500 uM; one replicate
Method in brief: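 Cy3-labelled switching-strand clusters on a modified Illumina MiSeq flow-cell were annealed to 100 nM quencher-labelled ATP aptamer and imaged first in selection buffer, then after 15 min with 500 uM ATP at 22 °C. NaOH stripping and re-annealing separated each of five buffer/ATP cycles, and clusters outside 100-1000 RFU were excluded. The fluorescence ratio sums target-cycle Cy3 intensity over buffer-cycle Cy3 intensity per cluster and averages it per switch-domain sequence.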
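Further: ATP exposure 15 min at 22 °C before imaging.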

| Sequence | switch fluorescence ratio |
| --- | --- |
| GGGCTTGTTT | 0.995 |
| TTGAGAACTA | 0.958 |
| TGTTATGTGG | 0.992 |
| CGGAATCGA | 1.06 |
| GGGACCGATG | 0.962 |
| GCAGTTTGG | 1.02 |
| TATGCCACTA | 1.02 |
| ATTACACAAT | 1.04 |
| TTGCAGTGTG | 1.01 |
| CGGTTGAGAC | 1.07 |
| ATGAATGGGC | 0.965 |
| TTGACATCA | 1.05 |
| GCGGTTCCAA | 0.96 |
| TAGGTTTGTT | 0.936 |
| GCCTGCGTTA | 1.08 |
| CTCGGGAAGT | 0.983 |
| TTTTAGACTA | 0.995 |
| TCTGCCCTAC | 2.37 |
| ACACTAAGGG | 1.05 |
| CGTCAGGGTA | 1.03 |
| TAGGCCCAGA | 0.959 |
| ATTTGTGGTC | 0.98 |
| TCTCTAGATT | 1.04 |

| Sequence | switch fluorescence ratio |
| --- | --- |
| GCCCGTTGGT | 1.01 |
| CCGATTTAAT | 1.14 |
| CGCTATGTCC | 1.27 |
| ACGAGTCAGA | 0.998 |
| TACCCAATGA | 1.04 |
| CTAAGTCGCA | 1 |
| CCTGTAAGTC | 1.09 |
| CGGCCGGCAC | 1.09 |
| TGTGATCCTT | 1.05 |
| GAGGAAAG | 1.04 |
| CGCCTGCGGG | 0.997 |
| TGCGGTCTTC | 1.1 |
| GAGACATCTT | 0.984 |
| AGAGGGTAAT | 1.08 |
| GACTCGTGCT | 1.01 |
| ATCTTTTACC | 1.06 |
| ATTATTGCAG | 0.999 |
| CGAGGGCAGT | 1.18 |
| CATCCCTACT | 2.94 |
| TTCCCGTCGC | 1.08 |
| CCGTCAGTCG | 1.04 |
| CCACTGGGTT | 1 |
| TTACTGAG | 1.04 |

| Sequence | switch fluorescence ratio |
| --- | --- |
| TGGGCAATA | 1.7 |
| TCCATTGGTT | 0.987 |
| CGTGTATAGA | 1.03 |
| CAGATCATAC | 1.29 |
| CTGGCAGCCG | 1.03 |
| CCCTGTCGCC | 1 |
| AGTATTATCT | 1.02 |
| AATAGAGTTT | 1.03 |
| TTTACCGAGC | 1.06 |
| TAGTTGTGCA | 0.976 |
| GACTTACGTC | 1.12 |
| GGAAGATATA | 0.982 |
| TGGCCAGTTT | 1.06 |
| AGAATAGCTT | 1.01 |
| CGCATACTCG | 4.82 |
| CAATTCGCGC | 1.05 |
| GGTCAAACTA | 0.998 |
| GGAAGTGAT | 0.998 |
| GCCGCGCAGC | 1.04 |
| TCACCAGCTG | 1.04 |
| CTCATACGTA | 1.1 |
| ATGTAGATTG | 0.994 |
| CACATTTTAT | 1.01 |

| Sequence | switch fluorescence ratio |
| --- | --- |
| GCTCATTCCG | 1.06 |
| GTTAACATTT | 1.03 |
| CCACCACTGG | 1.08 |
| GAAACTGCCG | 1.07 |
| GCACGCGGGC | 0.992 |
| TAGAGAGATT | 1 |
| TCGTGTGGGC | 0.982 |
| AAATAATTAT | 1 |
| GTTTATCAAG | 0.985 |
| GTACTAGCGT | 0.992 |
| CTGGATACGA | 1.13 |
| TCATTACCAA | 0.988 |
| ACCGTGGTGT | 1.06 |
| ACTAATTCCG | 1.01 |
| TCTTGCTTGC | 1.03 |
| GACGTGGTAT | 1.13 |
| TTAAAGACCA | 1.01 |
| AATTTGCGGA | 0.996 |
| AAACACAATT | 1.02 |
| TAACTTTTAG | 1.01 |
| TGATTTCTGG | 0.965 |
| TTTAGCCGC | 1.03 |
| GTTAAATTGG | 0.949 |

| Sequence | switch fluorescence ratio |
| --- | --- |
| AGAAGTAAAT | 1 |
| CTATTGGCGA | 1.02 |
| GTGTAAGGAT | 1 |
| AATCTGGTTC | 1.04 |
| TCTTAGGAAT | 1.03 |
| GCTAATACCG | 0.959 |
| TTAGGCTGTT | 1.06 |
| TGTGGTTGT | 1 |
| TTCGAGGTGT | 1.03 |
| CATTGGCATC | 1.12 |
| TTAAACATG | 0.987 |
| CACATGTAAG | 0.977 |
| CAATCGTCCT | 0.996 |
| CGTTAGGTAA | 0.984 |
| GACCGTAAA | 1.16 |
| GGCTTCCGTC | 1.12 |
| TCGGGGAGCC | 1 |
| TGGTTGAGCA | 0.968 |
| CTCGAGGGGA | 1.05 |
| ATAGAAGAGG | 0.969 |
| GGTTCTGACG | 0.941 |
| TTTTCTCCTG | 1.06 |
| TGGTGCTGCC | 1.03 |

| Sequence | switch fluorescence ratio |
| --- | --- |
| CTGTCAATCC | 2.58 |
| GTCAACCAGT | 1.01 |
| TAGCTGATTA | 0.984 |
| ACGGATTATA | 1.01 |
| CATTGGACAG | 1.01 |
| GGTGGATTGA | 0.977 |
| ATAGGACTCA | 1.06 |
| ACTCTTCCGC | 2.22 |
| CTTTCTAGAC | 1.02 |
| GGAGATATTG | 0.954 |
| GAATTCACTA | 1.04 |
| GTATTCTGCG | 1 |
| CCTGTCCGCT | 1.86 |
| AAGGGCCCAT | 0.972 |
| CTCCCAAAT | 2 |
| GAGATCGCTC | 1.01 |
| TGCCAGTTTC | 0.978 |
| GAACATAGT | 0.921 |
| GCTACTCGCT | 1.09 |
| ACTGGCTATC | 1.07 |
| GCCGGCCCAT | 0.996 |
| GACAATAAAA | 1.04 |
| AAAATCTCCA | 1.03 |

| Sequence | switch fluorescence ratio |
| --- | --- |
| GGTGACCGGC | 0.974 |
| GTGTTTGAGG | 0.985 |
| TCAGGTACAC | 1.01 |
| TATTAGGCTG | 1.07 |
| GTTTTGATGA | 1 |
| AAAGCCGAGG | 0.956 |
| TTAAGGGGCC | 1.03 |
| TCTTGTAGTT | 1 |
| GTTCGAGCTA | 1.01 |
| CAAGTCGTCT | 1.06 |
| AGCCTGCAGG | 0.979 |
| TGTTGAAATG | 0.981 |
| CCAGAGAGTA | 0.963 |
| AGCTGCATGT | 0.979 |
| TACTTCTTAC | 1.14 |
| TATGCCGAGA | 1.09 |
| AGCGCGTATG | 1.04 |
| TAATGGGGCT | 0.944 |
| CCCCGCGTTT | 3.65 |
